In all, about 45,000 compounds went through this assay and about 65 (0.1%) were called active. The call rests on the fitted dose curve; in most records, active means well fitted activation curve with a large enough effect; inconclusive means small, poorly fitted or top-dose-only effect; inactive means no such curve, though single readings can be large or run the other way. This is one part of the list.
These compounds were tested against Galactocerebrosidase (Homo sapiens) (UniProt P54803) (assay: A Novel Cell-Based Assay to Identify Small Molecules for B -Galactocerebrosidase). Details: 145M-Twi-hGALC-G270D cells (Twitcher mouse brain line with human GALC G270D), HMU-beta-Gal fluorescence, 48 h; series mostly up to 57.5 µM; activation: at the top concentration.
How it was run: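 Live 145M-Twi cells (Twitcher mouse brain-derived, GALC-null) stably expressing human GALC-G270D, with a wild-type GALC line, were compound-treated. Residual GALC activity was then read as fluorescence from 0.1 mM final HMU-β-gal at pH 5.2; higher signal means activation.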
Further: 0% is about no effect; nearly all actives have a fitted effect of over 65% in size.

Chain of UniProt P54803 (P54803 whole entry, looked up): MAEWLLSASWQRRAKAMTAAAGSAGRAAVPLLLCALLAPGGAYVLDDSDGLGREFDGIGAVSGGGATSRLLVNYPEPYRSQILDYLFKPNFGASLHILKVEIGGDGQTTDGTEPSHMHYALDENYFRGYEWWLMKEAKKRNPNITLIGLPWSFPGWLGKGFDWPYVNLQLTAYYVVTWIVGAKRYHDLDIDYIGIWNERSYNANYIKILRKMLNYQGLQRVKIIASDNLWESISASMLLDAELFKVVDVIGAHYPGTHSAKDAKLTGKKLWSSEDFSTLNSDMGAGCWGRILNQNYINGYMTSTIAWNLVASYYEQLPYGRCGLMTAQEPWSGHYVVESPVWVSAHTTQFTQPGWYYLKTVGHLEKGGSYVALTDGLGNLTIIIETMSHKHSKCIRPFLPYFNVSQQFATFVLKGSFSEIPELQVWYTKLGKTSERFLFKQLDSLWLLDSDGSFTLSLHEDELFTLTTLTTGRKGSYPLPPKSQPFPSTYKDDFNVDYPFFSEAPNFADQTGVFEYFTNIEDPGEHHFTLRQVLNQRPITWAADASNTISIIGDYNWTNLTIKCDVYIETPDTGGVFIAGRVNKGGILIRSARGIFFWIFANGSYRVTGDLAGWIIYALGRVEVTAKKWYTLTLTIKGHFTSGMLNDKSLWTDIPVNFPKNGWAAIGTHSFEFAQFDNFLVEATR

activation, inactive:
COc1ccc(C(=O)NCC(c2cccs2)S(=O)(=O)c2cccs2)cc1 (stereo unspecified) 5.64%, Cc1ccc(NC(=O)[C@H](Cc2ccccc2)N2Cc3ccccc3C2=O)cc1F -8.47%, CCOc1ccc(C2CC(=O)c3c([nH]c(C(=O)OC4CCCCCC4)c3C)C2)cc1 (stereo unspecified) -28.3%, CC1=C(C(=O)OC2CCCCCC2)C(c2c(Cl)cccc2Cl)CC(=O)N1 (stereo unspecified) -11.5%, CCCn1c2ccc(C)cc2c2nnc(SCCN3CCCCC3)nc21 -11.7%, COc1ccc(CCNC(=O)c2cc(-c3ccc(C)c(C)c3)nc3ccccc23)cc1OC 7.88%, O=C(CN1C(=O)CC(c2ccco2)Sc2ccccc21)Nc1ccc(OC(F)(F)F)cc1 (stereo unspecified) -7.97%, Cc1ccc(S(=O)(=O)Nc2nc3n(n2)C(c2ccc(Cl)cc2)C=C(c2ccccc2)N3)cc1 (stereo unspecified) -9.4%, Cc1ccc(CNc2nc3nc(C)c(Cl)c(C)n3n2)cc1 -24.9%, COc1ccc(-c2nc(CS(=O)CC(=O)NCc3ccccc3Cl)c(C)o2)cc1OC (stereo unspecified) -16.4%, O=C(c1ccco1)N1CCNCC1 -10.7%, Cn1c(C(=O)Nc2cccc(Cl)c2)cc2c(=O)n(C)c3ccccc3c21 -1.38%, O=S(=O)(c1ccc(Br)cc1)N1CCn2cccc2C1c1ccc(Br)cc1 (stereo unspecified) -6.85%, Cc1nn(C)c2c1c(C(F)(F)F)cc(=O)n2C(C)C(=O)NCc1ccccc1 (stereo unspecified) -19.9%, CCOCCc1nn2c(=O)cc(COC(=O)c3ccc4c(c3)OCO4)nc2s1 -30.2%, O=C(NCc1ccccc1)c1ccc2c(c1)sc1nc(-c3ccc(F)cc3)cn12 -19.6%, CCc1ccccc1NC(=O)CSc1nc2ccccc2nc1Cc1cccc(OC)c1 -11.5%, CC(C)c1nn2c(=O)cc(COC(=O)COc3ccccc3F)nc2s1 -19.3%, Cc1ccc(C)c(N2CCN(CCCNC(=O)c3ccc4nc(C(C)C)oc4c3)CC2)c1 -11.6%, COc1cccc(-c2cn3c(n2)sc2cc(C(=O)NCCc4ccccc4)ccc23)c1 -12.5%, Cc1ccc(-c2cn3c(n2)sc2cc(C(=O)NC4CCCCCC4)ccc23)c(C)c1 -6.72%, Cc1ccc(Cl)cc1N1CCN(C(=O)C2CCN(S(=O)(=O)c3c(C)noc3/C=C/c3ccccc3F)CC2)CC1 -11.2%, Cc1oc2c(c(C)cc3oc(=O)c(CC(=O)NCCc4ccc(Cl)cc4)c(C)c32)c1C -29.8%, Cc1cccc(NC(c2nnc(-c3ccccc3)o2)c2ccc(F)cc2Cl)c1C (stereo unspecified) -5.39%, CCn1c(=O)c2c(nc(C=Cc3ccc(OC)c(OC)c3)n2C)n(CC)c1=O -9.41%, O=C(O)CCSc1nnc(-c2ccc(Cl)cc2Cl)o1 6.76%, CC1(C)O[C@H]2[C@@H](O1)[C@@H](C(=O)Nc1cc(F)ccc1F)O[C@@H]1OC(C)(C)O[C@@H]12 5.36%, CCCCC1C(=O)N(c2ccccc2)N(c2ccc(O)cc2)C1=O (stereo unspecified) -12.6%, Cc1cc(-c2ccc(C)c(S(=O)(=O)N(C(C)C)C3CCCCC3)c2)on1 -6.71%, CCOC(=O)c1ccc(CN(Cc2ccc(Cl)cc2Cl)S(=O)(=O)c2cccc(Cl)c2)cc1 -3.8%, O=C(CCBr)N1CCN(C(=O)CCBr)CC1 -14.6%, COc1ccc(-c2nc3n(n2)C(c2cccc(C)c2)C(C(N)=O)=C(C)N3)cc1OC (stereo unspecified) -14.5%, CC(=O)c1ccc(NC(=O)c2nn(C)c3c2CS(=O)(=O)c2ccccc2-3)cc1 -13.9%, COc1cc2c(cc1OC)C(C(C(=O)N(CCc1ccc(OC)c(OC)c1OC)CCc1ccc(OC)c(OC)c1OC)c1ccccc1)=NCC2 (stereo unspecified) -19%, Cc1cccc(-c2cc(C(=O)O)c3c(-c4ccc(F)cc4)[nH]nc3n2)c1 -8%, Cc1ccc2nc(N(Cc3cccnc3)C(=O)CCc3ccccc3)sc2c1 5.24%, Cc1cccc(NC(=O)c2ccc(F)c(S(=O)(=O)N3CCN(c4ccc(F)cc4)CC3)c2)c1 -6.17%, CCOC(=O)C1=C(CN2CCCCC2)NC(=O)NC1c1ccc(OC)cc1 (stereo unspecified) -16.4%, CCOc1ccccc1NC(=O)c1cn(C2CCCCC2)c(=O)c2c1c1ccccc1n2C -17%, COc1ccc(CCNC(=O)CCn2c(=O)c3cccn3c3ccc(F)cc32)cc1OC -9.94%, Cc1ccc(-c2cn3c(n2)sc2cc(C(=O)NC4CCCCC4)ccc23)cc1 -5.62%, O=C(NC1CC(=O)N(c2ccc(F)cc2)C1)C1CCCCC1 (stereo unspecified) -4.55%, CCOc1cc(/C=C(\C#N)C(=O)Nc2ccccc2C)ccc1OCc1cc(=O)n2nc(CC)sc2n1 3.53%, CCN(CC)C(=O)Cn1c(=O)n(CCCCCC(=O)NCc2ccccc2)c(=O)c2sccc21 -10.6%, COc1ccccc1C(=O)Nc1ccccc1SCc1cc(=O)c2ccccc2[nH]1 -12.1%, c1cc(CN2CCCCC2)cc(OCCCNc2nc3ccccc3s2)c1 -13.9%, O=C(c1ccc2c(c1)N(Cc1ccccc1F)C(=O)c1ccccc1S2=O)N1CCCCC1 (stereo unspecified) -6.47%, COc1ccc(-c2nc(C)c(CCNC(=O)c3cc(OC)c(OC)c(OC)c3)s2)cc1OC -18.1%, O=C(NCc1ccccc1)c1cc2ccccc2o1 -20%, COc1ccc(OC)c2sc(N(Cc3cccnc3)C(=O)c3ccc(C(C)=O)cc3)nc12 -4.87%, Cc1nnc(SCC(=O)NCc2ccc(N(C)C)cc2)c2nn(-c3ccccc3)c(C)c12 -8.7%, Cc1ccc(NC(=O)C2CCN(c3nnc(-n4cccc4)s3)CC2)cc1Cl -15.2%, CCOc1ccc(-c2csc(-c3nc(-c4ccc(Br)s4)cs3)n2)cc1 -14.8%, COc1cccc(C(c2c(O)cc(C)n(Cc3ccco3)c2=O)N2CCC(C)CC2)c1 (stereo unspecified) -11%, CNCC(O)c1ccc(O)c(O)c1 (stereo unspecified) 23.9%, Cc1cccc(CS(=O)(=O)Cc2ccc(C(=O)NC(C)c3ccccc3)o2)c1 (stereo unspecified) 2.74%, Cc1ccc2c(c1)-c1c(c(C(=O)NCCc3ccccc3)nn1C)CS2 -38.3%, COc1cccc(CNC(=O)Cn2c(SCC(=O)Nc3ccc(F)cc3)nc3ccccc32)c1 -16.3%, CCCCN(CC)CCCNC(=O)C1CCN(c2nc3ccc(CC)cc3s2)CC1 -24.5%, CCCN(C(=O)Cc1c(C(=O)O)[nH]c2ccc(Cl)cc12)c1ccc(OCC)cc1 -13.5%, CC(C)CCNC(=O)c1cccc(-n2cnc3cccnc32)c1 9.34%, Cc1ccc(C(=O)COC(=O)c2cccc(NC(=O)c3ccc(Br)cc3)c2)cc1 -10.9%, Cc1ccc(C)c(N2CCN(S(=O)(=O)c3ccc4c(c3)CC(=O)N4C)CC2)c1 -10.7%, Cc1cccc(N(CC(=O)Nc2cccc(Cl)c2C)S(C)(=O)=O)c1C -36.8%, Cc1ccc(S(=O)(=O)NCC(c2ccco2)N2CCN(c3ccccc3F)CC2)cc1 (stereo unspecified) -14.8%, COc1ccc(CCC(=O)NCc2nc3cccnc3n2Cc2ccc(C)cc2)cc1 -8.72%, CCOCCCNC(=O)c1[nH]c2cc(OC)ccc2c1Sc1ccccc1 -28.2%, CCCCCNS(=O)(=O)c1ccc(N2CCCCS2(=O)=O)cc1 5.6%, COc1ccc(NC(=O)Cn2c(=O)n(CCC(=O)NCCc3ccc(OC)c(OC)c3)c(=O)c3ccccc32)cc1Cl -7.83%, CCCN1C(=O)CN(C2CCCCC2)C(=O)C1c1ccc(OC)c(OC)c1 (stereo unspecified) 4.27%, COC(=O)c1c(NC(=O)c2nc(SCc3ccc(C)cc3)ncc2Cl)sc2c1CCCC2 2.97%, Cc1cccc(-n2ncc(C(=O)N3CCN(C(=O)c4ccco4)CC3)c2C2CCN(C(=O)OC(C)(C)C)CC2)c1 -6.33%, COc1cccc([C@@H]2Nc3ccc(C(=O)O)cc3[C@@H]3C=CC[C@@H]32)c1OC -12.8%, Cc1ccc2c(=O)cc(C(=O)Nc3ccc(S(=O)(=O)Nc4onc(C)c4C)cc3)oc2c1 -11.1%, O=C(NC1CC1)c1ccc(Cn2c(SCc3ccccc3F)nc3cccnc32)cc1 -24.8%, Cc1nn(CCC(=O)NCc2ccc(N(C)C)cc2)c(=O)c2nn(-c3ccccc3)c(C)c12 1.74%, COc1cccc(NC(=O)Cn2nc3c4ccccc4n(Cc4cccc(F)c4)cc-3c2=O)c1 1.52%, Cc1ccc(N2CC(NC(=O)c3ccc(Br)o3)CC2=O)cc1C (stereo unspecified) -7.85%, CC(NC(=O)C(=O)Nc1c2c(nn1-c1ccccc1)CSC2)c1ccccc1 (stereo unspecified) -6.41%, Cc1ccc2c(c1)c(=O)c(C(=O)c1ccncc1)cn2CC(=O)Nc1ccc(C(C)C)cc1 -17.9%, COc1ccc2nc3oc(C(=O)N(C)c4ccc(Cl)cc4)cc3cc2c1 -17.8%, CCc1nnc(NC(=O)CSc2nccn2Cc2ccc(F)cc2)s1 6.5%, COc1ccc(N2CCN(CC(O)COc3ccc(C(C)C)c(C)c3)CC2)cc1 (stereo unspecified) -24.1%, CCOc1ccc(NCc2cccn2-c2nnc(N3CCC(C(=O)NCc4ccc(C)cc4)CC3)s2)cc1 1.91%, CC(C)(C)c1ccc(C(=O)Nc2ccc(-c3nc4cc(Cl)ccc4o3)cc2)cc1 -16.8%, Cc1nnc(N2CCN(c3ccccc3F)CC2)c2c1nnn2Cc1ccccc1Cl -8.07%, COc1ccc(CNc2oc(COc3cccc(C)c3)nc2C#N)cc1 -12.7%, O=C(Nc1ccc(NC(=O)c2ccc(Br)cc2)c(Cl)c1)c1ccc(Br)cc1 -9.59%, COc1ccccc1-c1nnc(C2CCN(S(=O)(=O)c3ccccc3)CC2)o1 -8.83%, Cn1cc(S(=O)(=O)N2CCCC2)cc1C(=O)Nc1ccc(C(F)(F)F)cc1 -5.12%, COc1ccc(C(=O)Nc2nc3ccc(S(=O)(=O)N4CCCC4)cc3s2)cc1 -17.1%, COc1cccc(N2CCN(C(=O)Cn3cnc4onc(-c5ccc(F)cc5)c4c3=O)CC2)c1 -19.5%, CCCCCn1c(=O)[nH]c2cc(C(=O)Nc3ccc(OC)c(OC)c3)ccc2c1=O -25.7%, COc1cccc(-c2nc(CS(=O)(=O)CC(=O)NCCCN3CCN(C)CC3)c(C)o2)c1 -16.1%, COc1cccc2cc(-c3nnc(-c4ccc(Cl)cc4)o3)c(=O)oc12 10.2%, CCc1nn(CC(=O)N2CCN(c3cccc(C(F)(F)F)c3)CC2)c(=O)c2cc3occc3n12 -9.81%
